Assay results published in PubChem BioAssay AID624173 (National Center for Advancing Translational Sciences (NCATS), 2012).
Screen size: about 410,000 compounds; about 490 (0.12%) were called active. Inconclusive means that the source gave no clear call. Such entries were picked first, then a sample of the others. Calls come from the whole dose curve; as a rule, active = well fitted inhibition curve with a large enough effect; inconclusive = small, poorly fitted or top-dose-only effect; inactive = flat fitted curve, though single readings scatter. A potency beside an inconclusive call is a rough fit, not a confirmed value.

The compounds below were run against pyruvate kinase (Trypanosoma brucei) (UniProt Q57TT1) (assay: qHTS of Trypanosoma Brucei Inhibitors). Details: TbPYK enzyme, Kinase-Glo Plus ATP luminescence, 45 min; series mostly up to 76.8 µM; activity, negative = inhibition: at the top concentration.
Method in brief: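 Luminescent Kinase-Glo Plus end-point after 45 min room-temperature reaction of T. brucei pyruvate kinase started with 130 uM ADP (final). Buffer TEA 50 mM pH 7.2 with KCl, MgCl2, BSA, Tween-20; titration-based qHTS with fitted concentration-effect curves.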
% is set by controls: 0 for no effect and ±100 for the full control effect; potency is the fitted concentration of half-maximal effect; tags give direction and shape of the fitted curve.
Note: nearly all actives have a fitted effect of over 50% in size.

| SMILES | activity, negative = inhibition | Potency |
| --- | --- | --- |
| COC(=O)Oc1nsnc1N1CCOCC1 | inactive: -39.5% | – |
| CC(C)NS(=O)(=O)c1ccc(OCC(=O)N2CCN(Cc3ccc4c(c3)OCO4)CC2)c(Cl)c1 | – | inconclusive: 31.6 µM [inhibitor, single point] |
| COc1cc(NC(=O)c2cc3c(s2)-c2ccccc2OC3)cc(OC)c1OC | – | inconclusive: 44.7 µM [inhibitor, single point] |
| COc1ccc(-c2n[nH]c(=S)n2-c2cc(OC)ccc2OC)cc1 | – | active: 2.82 µM |
| Cc1ccc(NC(=O)Cn2c(=O)c3ccccc3n3nncc23)cc1 | inactive: 7.91% | – |
| COc1ccc2c(c1)[N+](C)(C)C(C)(C)C=C2C | – | inconclusive: 31.6 µM [inhibitor, single point] |
| CN(C(=O)CO)c1c(I)c(C(=O)NCC(O)CO)c(I)c(C(=O)NCC(O)CO)c1I (configuration not stated) | inactive: 9.78% | – |
| CCC(CC)C(=O)Nc1cccc(C(=O)NCc2ccco2)c1 | – | inconclusive: 50.1 µM [inhibitor, partial curve, poor fit] |
| Cc1ccc(C(=O)N2CC(C)OC(C)C2)cc1[N+](=O)[O-] (configuration not stated) | inactive: -7.64% | – |
| Cc1cc2c(cc(C(=O)N3CCC(C(=O)N4CCCC4)CC3)n2Cc2c(F)cccc2Cl)o1 | – | inconclusive: 35.5 µM [inhibitor, single point] |
| COC(=O)c1ccc(/C=C/C(=O)c2ccc(OC)c(OC)c2)cc1 | inactive: -3.47% | – |
| CCCn1c(SCC(=O)Nc2nc(-c3ccc(OC)cc3)cs2)nc2c1c(=O)n(C)c(=O)n2C | – | inconclusive: 22.4 µM [inhibitor, partial curve] |
| O=C1/C(=C/c2ccccn2)SC(=S)N1Nc1ncc(C(F)(F)F)cc1Cl | – | inconclusive: 8.91 µM [inhibitor, partial curve] |
| Cc1cccc(C)c1NC(=O)CSc1nnc(-c2ccco2)c(-c2ccco2)n1 | – | inconclusive: 25.1 µM [inhibitor, partial curve, poor fit] |
| CC(C)c1ccccc1-n1c(SCC(=O)N2CCN(c3ccccc3)CC2)nnc1-c1cccnc1 | – | inconclusive: 39.8 µM [inhibitor, single point] |
| O=C(NC1CCCCC1)C(c1cc2ccccc2o1)N1CCOCC1 (configuration not stated) | inactive: -0.567% | – |
| COc1ccc(O)c(C(=O)C2c3ccccc3C(=O)N2c2ccc(C)cc2)c1 (configuration not stated) | – | inconclusive: 39.8 µM [inhibitor, single point] |
| COc1cccc(CNc2ccc3[nH]c(=O)[nH]c3c2)c1OCc1ccccc1F | – | inconclusive: 28.2 µM [inhibitor, single point] |
| CCn1c(Cc2ccccc2)n[nH]c1=S | – | inconclusive: 22.4 µM [inhibitor, partial curve] |
| CCOc1ccc2[nH]c(=O)c(C(c3nnnn3Cc3ccco3)N3CCC(C)CC3)cc2c1 (configuration not stated) | inactive: -24.1% | – |
| N#Cc1ccc(/C=C/C(=O)c2cccnc2)cc1 | – | inconclusive: 25.1 µM [inhibitor, partial curve, poor fit] |
| CC(=O)N1CCC(N(C(=O)Nc2ccc(C)c(C)c2)C2CCCC2)CC1 | inactive: 1.9% | – |
| COc1ccccc1NC(=O)CN1C(=O)C(c2ccc(F)cc2)=NC12CCCCC2 | inactive: 0.53% | – |
| COc1ccc(N2C(=O)C3CC(C)=C(C)CC3C2=O)c(OC)c1 (configuration not stated) | inactive: -1.06% | – |

| SMILES | activity, negative = inhibition | Potency |
| --- | --- | --- |
| CCOc1ccc2nc(NC(=O)C34CC5CC(CC(NC(C)=O)(C5)C3)C4)sc2c1 | inactive: -5.21% | – |
| O=C(Cc1ccc(F)cc1)NCCc1csc2nc(-c3ccccc3F)nn12 | inactive: 2.77% | – |
| N#Cc1c2c(c(-c3ccccc3Cl)[nH]c1=S)CCCC2 | – | inconclusive: 2.24 µM [inhibitor, full curve, poor fit] |
| C=CCn1c(-c2cc(Cl)ccc2OC)n[nH]c1=S | – | inconclusive: 7.94 µM [inhibitor, partial curve] |
| CCC(=O)N1CCc2cc(S(=O)(=O)NC(CC(C)C)C(=O)Nc3cccc(C)c3C)ccc21 (configuration not stated) | inactive: -1.34% | – |
| COc1ccc(OCC(O)Cn2c(=N)n(CCN3CCCCC3)c3ccccc32)cc1 (configuration not stated) | – | inconclusive: 31.6 µM [inhibitor, partial curve, poor fit] |
| O=[N+]([O-])c1ccccc1NCCNS(=O)(=O)c1ccc(Cl)cc1 | inactive: -5.44% | – |
| Cc1ccc(-c2cc(-c3ccccc3)c(C#N)c(N)n2)o1 | – | inconclusive: 31.6 µM [inhibitor, single point] |
| O=C(NCc1ccccc1)C(c1ccco1)N(C(=O)c1ccccn1)c1ccccc1 (configuration not stated) | inactive: -3.25% | – |
| Cc1ccc(/C=C/C(=O)NCc2ccc3c(c2)OCO3)o1 | – | inconclusive: 15.8 µM [inhibitor, partial curve, poor fit] |
| O=C(CNC(=O)c1ccc(Cl)cc1)OCC(=O)c1ccccc1 | inactive: -12.7% | – |
| O=C(NNC(=O)c1cccs1)c1ccc(Cl)cc1 | inactive: -3.6% | – |
| CC(C)COC(=O)N1CC(O)CC1C(=O)Nc1ccc2c(c1)OCO2 (configuration not stated) | – | inconclusive: 28.2 µM [inhibitor, single point] |
| CC(c1ccccc1)n1c(-c2ccccc2F)n[nH]c1=S (configuration not stated) | – | inconclusive: 2 µM [inhibitor, full curve, poor fit] |
| O=C(Nc1ccc(S(=O)(=O)N2CCCCC2)cc1)C1CCCN(C(=O)c2ccc(Cl)cc2)C1 (configuration not stated) | inactive: 1.37% | – |
| CCOc1ccc(N2C(=O)NC(=O)/C(=C\c3cc(OC)c(OC)cc3[N+](=O)[O-])C2=O)cc1 | – | inconclusive: 31.6 µM [inhibitor, partial curve] |
| COc1cc(C2C(C#N)=C(N)OC3=C2C(=O)CCC3)c([N+](=O)[O-])cc1OC (configuration not stated) | – | inconclusive: 25.1 µM [inhibitor, single point] |
| O=c1[nH]c2ccccc2c(O)c1O | – | inconclusive: 5.01 µM [inhibitor, full curve] |
| Oc1cccc2c(NC(=S)Nc3ccc(OC(F)F)cc3)cccc12 | inactive: -4.51% | – |
| O=C(CSc1nc2ccccc2s1)Nc1cc(S(=O)(=O)N2CCOCC2)ccc1O | – | inconclusive: 20 µM [inhibitor, partial curve, poor fit] |
| COC(=O)c1cccc(NC(=S)NC(C)C)c1 | inactive: -0.527% | – |
| Cc1cc(C)nc(SCC(=O)NC2=NN=C(c3ccc(Br)cc3)CS2)n1 | – | inconclusive: 39.8 µM [inhibitor, single point] |
| COc1ccc(OC)c(NC(=O)c2ccc(NC(C)=O)cc2)c1 | inactive: 3.18% | – |
